PMC5344210 (Cell Death and Differentiation, 2017)
Values belong to the binder of their own block, whether it stands above or below them.

Molecular target: Flag-hTRAIL (Flag-tagged soluble human TRAIL) (human, UniProt P50591 39-281)
Assay: BLI

Kd: 8 nM
B1: TRAIL-R1-Fc WT (human TRAIL-R1 fused to human Fc IgG1, recombinant soluble receptor) (Fc fusion)
chain: not shown
modifications: N-linked glycan on N156

Kd: 8.7 nM
B2: TRAIL-R1-Fc N156A (N-glycosylation-deficient human TRAIL-R1 fused to human Fc IgG1) (Fc fusion)
chain: not shown
